# Laboratory results taken from the supplement of paper PMC4604168 (melanoma cell lines).
# The other results are listed elsewhere or left out. Single values are uncertain, as repeats are few or missing.
# Test system: 501Mel
# Assay: cell count relative to DMSO control; melanoma cells; higher = more viable cells
# Settings: library dose: standard library concentration; 72 h
# 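Also: cells treated in 1,536-well plates, then fixed and DAPI-stained, with nuclei counted from automated high-throughput microscope images.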
row,SMILES,cell count [%]
1,"Cn1c(Nc2ccc(C(F)(F)F)cc2)nc2cc(Oc3ccnc(-c4ncc(C(F)(F)F)[nH]4)c3)ccc21 + N#Cc1c(O)c2c(-c3ccc(-c4ccccc4O)cc3)csc2[nH]c1=O [A769662] (first compound 0.4 µM, partner dose 10 µM)",52.5
2,"COCC[n+]1c2c(n(Cc3cnccn3)c1C)C(=O)c1ccccc1C2=O + N#Cc1c(O)c2c(-c3ccc(-c4ccccc4O)cc3)csc2[nH]c1=O [A769662] (first compound 0.002 µM, partner dose 10 µM)",76.3
3,"Nc1cccc2c1CN(C1CCC(=O)NC1=O)C2=O (stereo not given) [lenalidomide] + O=c1cc(-c2cccc3c2Sc2ccccc2S3)oc(N2CCOCC2)c1 [KU55933] (first compound 5 µM, partner dose 5 µM)",79.6
4,"O=C(CCCCCCC(=O)Nc1ccccc1)NO [vorinostat] + CCCCCCCCCCCC1=C(O)C(=O)C=C(O)C1=O [Embelin] (first compound 0.4 µM, partner dose 6 µM)",70.1
5,"Clc1ccc(Nc2nnc(Cc3ccncc3)c3ccccc23)cc1 [vatalanib] + CCN(CC)CCCCNc1ncc2cc(-c3cc(OC)cc(OC)c3)c(NC(=O)NC(C)(C)C)nc2n1 [PD173074] (first compound 10 µM, partner dose 0.5 µM)",72.3
6,"Clc1ccc(Nc2nnc(Cc3ccncc3)c3ccccc23)cc1 [vatalanib] + O=C(Nc1ccccc1)c1cc([N+](=O)[O-])ccc1Cl [GW9662] (first compound 10 µM, partner dose 10 µM)",55.8
7,"COCC[n+]1c2c(n(Cc3cnccn3)c1C)C(=O)c1ccccc1C2=O + O=c1cc(-c2cccc3c2Sc2ccccc2S3)oc(N2CCOCC2)c1 [KU55933] (first compound 0.002 µM, partner dose 5 µM)",62.6
8,"C#Cc1cccc(Nc2ncnc3cc(OCCOC)c(OCCOC)cc23)c1 [erlotinib] + c1cc(-c2cnn3cc(-c4ccc(OCCN5CCCCC5)cc4)cnc23)ccn1 [Dorsomorphin] (first compound 4 µM, partner dose 2 µM)",43.9
9,"Nc1cccc2c1CN(C1CCC(=O)NC1=O)C2=O (stereo not given) [lenalidomide] + O=S(=O)(c1ccccc1)N(CC(F)(F)F)c1ccc(C(O)(C(F)(F)F)C(F)(F)F)cc1 [T0901317] (first compound 5 µM, partner dose 7 µM)",55.1
10,"COCC[n+]1c2c(n(Cc3cnccn3)c1C)C(=O)c1ccccc1C2=O + CCCCCCCCCCCC1=C(O)C(=O)C=C(O)C1=O [Embelin] (first compound 0.002 µM, partner dose 6 µM)",63
11,"OCc1c[nH]c2ccccc12 [Indole-3-carbinol] + COc1cc2ncnc(Nc3ccc(Oc4ccccc4)cc3)c2cc1OC [SrcI1] (first compound 4 µM, partner dose 10 µM)",102
12,"C#Cc1cccc(Nc2ncnc3cc(OCCOC)c(OCCOC)cc23)c1 [erlotinib] + CCN(CC)CCCCNc1ncc2cc(-c3cc(OC)cc(OC)c3)c(NC(=O)NC(C)(C)C)nc2n1 [PD173074] (first compound 4 µM, partner dose 0.5 µM)",77.3
13,"Cn1c(Nc2ccc(C(F)(F)F)cc2)nc2cc(Oc3ccnc(-c4ncc(C(F)(F)F)[nH]4)c3)ccc21 + Oc1nc(-c2ccc(C(F)(F)F)cc2)nc2c1CSCC2 [XAV939] (first compound 0.4 µM, partner dose 10 µM)",45
14,"C#Cc1cccc(Nc2ncnc3cc(OCCOC)c(OCCOC)cc23)c1 [erlotinib] + COc1cc(N2CCC(N3CCN(C)CC3)CC2)ccc1Nc1ncc(Cl)c(Nc2ccccc2S(=O)(=O)C(C)C)n1 [NVP-TAE684] (first compound 4 µM, partner dose 0.4 µM)",65.1
15,"COCC[n+]1c2c(n(Cc3cnccn3)c1C)C(=O)c1ccccc1C2=O + COc1ccc(-c2ccc3c(N4CCOCC4)nc(N4C[C@@H](C)O[C@@H](C)C4)nc3n2)cc1CO [KU0063794] (first compound 0.002 µM, partner dose 0.1 µM)",68.5
16,"O=C(CCCCCCC(=O)Nc1ccccc1)NO [vorinostat] + Oc1cc(-c2nc(-c3ccccc3)[nH]c2-c2ccncc2)ccc1Cl [L779450] (first compound 0.4 µM, partner dose 1 µM)",39.9
17,"C#Cc1cccc(Nc2ncnc3cc(OCCOC)c(OCCOC)cc23)c1 [erlotinib] + N#Cc1c(O)c2c(-c3ccc(-c4ccccc4O)cc3)csc2[nH]c1=O [A769662] (first compound 4 µM, partner dose 10 µM)",83.2
18,"Cn1c(Nc2ccc(C(F)(F)F)cc2)nc2cc(Oc3ccnc(-c4ncc(C(F)(F)F)[nH]4)c3)ccc21 + O=C1NC(=O)/C(=C/c2ccc(-c3ccc(F)cc3O)o2)S1 [AS252424] (first compound 0.4 µM, partner dose 5 µM)",31.7

row,SMILES,cell count [%]
1,"OCc1c[nH]c2ccccc12 [Indole-3-carbinol] + Oc1cc(-c2nc(-c3ccccc3)[nH]c2-c2ccncc2)ccc1Cl [L779450] (first compound 4 µM, partner dose 1 µM)",89.2
2,"COCC[n+]1c2c(n(Cc3cnccn3)c1C)C(=O)c1ccccc1C2=O + Oc1cc(-c2nc(-c3ccccc3)[nH]c2-c2ccncc2)ccc1Cl [L779450] (first compound 0.002 µM, partner dose 1 µM)",59.9
3,"Cn1c(Nc2ccc(C(F)(F)F)cc2)nc2cc(Oc3ccnc(-c4ncc(C(F)(F)F)[nH]4)c3)ccc21 + Cn1cc(/C=C2\C(=O)Nc3cccnc32)c2ccccc21 [GW441756] (first compound 0.4 µM, partner dose 2 µM)",50.3
4,"O=C(CCCCCCC(=O)Nc1ccccc1)NO [vorinostat] + COc1ccc(-c2ccc3c(N4CCOCC4)nc(N4C[C@@H](C)O[C@@H](C)C4)nc3n2)cc1CO [KU0063794] (first compound 0.4 µM, partner dose 0.1 µM)",52.3
5,"OCc1c[nH]c2ccccc12 [Indole-3-carbinol] + Cc1cc([N+](=O)[O-])ccc1NS(=O)(=O)c1cc(Cl)ccc1Cl [FH535] (first compound 4 µM, partner dose 5 µM)",58.3
6,"O=C(CCCCCCC(=O)Nc1ccccc1)NO [vorinostat] + O=c1cc(-c2cccc3c2Sc2ccccc2S3)oc(N2CCOCC2)c1 [KU55933] (first compound 0.4 µM, partner dose 5 µM)",58
7,"C#Cc1cccc(Nc2ncnc3cc(OCCOC)c(OCCOC)cc23)c1 [erlotinib] + Oc1cc(-c2nc(-c3ccccc3)[nH]c2-c2ccncc2)ccc1Cl [L779450] (first compound 4 µM, partner dose 1 µM)",63.9
8,"Cn1c(Nc2ccc(C(F)(F)F)cc2)nc2cc(Oc3ccnc(-c4ncc(C(F)(F)F)[nH]4)c3)ccc21 + Oc1cc(-c2nc(-c3ccccc3)[nH]c2-c2ccncc2)ccc1Cl [L779450] (first compound 0.4 µM, partner dose 1 µM)",41.6
9,"COCC[n+]1c2c(n(Cc3cnccn3)c1C)C(=O)c1ccccc1C2=O + O=C(O)C(=O)Nc1sc2c(c1C(=O)O)CCNC2 [TCS401] (first compound 0.002 µM, partner dose 8.33333 µM)",73.9
10,"Cn1c(Nc2ccc(C(F)(F)F)cc2)nc2cc(Oc3ccnc(-c4ncc(C(F)(F)F)[nH]4)c3)ccc21 + O=C(O)C(=O)Nc1sc2c(c1C(=O)O)CCNC2 [TCS401] (first compound 0.4 µM, partner dose 8.33333 µM)",46.7
11,"Nc1cccc2c1CN(C1CCC(=O)NC1=O)C2=O (stereo not given) [lenalidomide] + COc1ccc2c(c1)CCC1C2CCC2(C)C(NCCCCCCN3C(=O)C=CC3=O)CCC12 [U73122] (first compound 5 µM, partner dose 2 µM)",95.2
12,"Cn1c(Nc2ccc(C(F)(F)F)cc2)nc2cc(Oc3ccnc(-c4ncc(C(F)(F)F)[nH]4)c3)ccc21 + O=c1cc(-c2cccc3c2Sc2ccccc2S3)oc(N2CCOCC2)c1 [KU55933] (first compound 0.4 µM, partner dose 5 µM)",57.4
13,"O=C(CCCCCCC(=O)Nc1ccccc1)NO [vorinostat] + Cn1cc(/C=C2\C(=O)Nc3cccnc32)c2ccccc21 [GW441756] (first compound 0.4 µM, partner dose 2 µM)",72.4
14,"Clc1ccc(Nc2nnc(Cc3ccncc3)c3ccccc23)cc1 [vatalanib] + c1cc(-c2cnn3cc(-c4ccc(OCCN5CCCCC5)cc4)cnc23)ccn1 [Dorsomorphin] (first compound 10 µM, partner dose 2 µM)",37.4
15,"OCc1c[nH]c2ccccc12 [Indole-3-carbinol] + Oc1nc(-c2ccc(C(F)(F)F)cc2)nc2c1CSCC2 [XAV939] (first compound 4 µM, partner dose 10 µM)",116
16,"C#Cc1cccc(Nc2ncnc3cc(OCCOC)c(OCCOC)cc23)c1 [erlotinib] + COc1ccc(COc2ccc(Cc3cnc(N)nc3N)cc2OC)cc1 [GW2580] (first compound 4 µM, partner dose 5 µM)",65.3
17,"O=C(CCCCCCC(=O)Nc1ccccc1)NO [vorinostat] + COC(=O)c1sccc1S(=O)(=O)Nc1ccc(Nc2ccccc2)cc1OC [GSK0660] (first compound 0.4 µM, partner dose 5 µM)",76.9
